Common to all, as to assay: SEC; analytical gel filtration of double mixtures, HiLoad 16/600 Superdex 200, 0.1 mM of each protein pre-incubated at 35 °C for 30 min; 50 mM Tris-HCl, 50 mM NaCl, 1 mM MgSO4, 2 mM DTT, pH 7.4, about 22 °C; fractions on SDS-PAGE; both purified
(In general: SEC sorts molecules by how far they enter the pores of the column.)

Sequences of proteins named here, by UniProt entry; tags and fusion partners are left off.
UniProt P0CE47: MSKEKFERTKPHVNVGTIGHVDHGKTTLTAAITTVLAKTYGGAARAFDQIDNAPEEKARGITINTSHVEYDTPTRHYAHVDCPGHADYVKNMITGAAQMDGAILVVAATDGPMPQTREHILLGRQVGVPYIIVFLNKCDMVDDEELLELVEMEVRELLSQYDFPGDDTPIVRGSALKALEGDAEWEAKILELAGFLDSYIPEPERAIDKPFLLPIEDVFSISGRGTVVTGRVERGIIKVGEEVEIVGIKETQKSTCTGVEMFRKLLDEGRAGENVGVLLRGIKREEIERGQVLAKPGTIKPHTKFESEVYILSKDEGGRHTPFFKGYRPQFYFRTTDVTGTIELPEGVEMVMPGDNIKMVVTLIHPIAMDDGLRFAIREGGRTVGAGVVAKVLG
UniProt P0A6P1: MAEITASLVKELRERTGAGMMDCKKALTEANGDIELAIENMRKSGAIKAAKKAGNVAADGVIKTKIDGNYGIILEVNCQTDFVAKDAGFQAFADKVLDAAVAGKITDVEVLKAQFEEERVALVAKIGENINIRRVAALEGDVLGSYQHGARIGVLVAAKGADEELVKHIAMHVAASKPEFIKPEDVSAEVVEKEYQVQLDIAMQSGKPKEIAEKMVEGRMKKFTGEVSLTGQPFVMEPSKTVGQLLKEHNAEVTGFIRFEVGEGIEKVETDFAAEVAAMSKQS
UniProt P0A850: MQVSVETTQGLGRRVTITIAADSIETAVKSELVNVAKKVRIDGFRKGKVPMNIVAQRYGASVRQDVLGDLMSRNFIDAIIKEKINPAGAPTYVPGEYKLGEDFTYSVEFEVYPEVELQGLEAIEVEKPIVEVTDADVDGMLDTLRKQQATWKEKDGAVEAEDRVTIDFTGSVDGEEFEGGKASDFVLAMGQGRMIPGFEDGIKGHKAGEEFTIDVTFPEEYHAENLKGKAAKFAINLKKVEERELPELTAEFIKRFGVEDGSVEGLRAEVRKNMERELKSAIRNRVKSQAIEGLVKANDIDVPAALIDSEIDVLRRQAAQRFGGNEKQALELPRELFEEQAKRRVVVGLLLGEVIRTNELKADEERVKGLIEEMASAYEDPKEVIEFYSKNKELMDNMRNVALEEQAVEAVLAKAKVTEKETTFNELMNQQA

Assay [1] addresses elongation factor thermo-unstable (EF-Tu), native monomeric (UniProt P0CE47).
Assay [2] has as its target T1, heat shock protein 33 (Hsp33), reduced zinc-bound (UniProt P0A6Y5).
T1 sequence: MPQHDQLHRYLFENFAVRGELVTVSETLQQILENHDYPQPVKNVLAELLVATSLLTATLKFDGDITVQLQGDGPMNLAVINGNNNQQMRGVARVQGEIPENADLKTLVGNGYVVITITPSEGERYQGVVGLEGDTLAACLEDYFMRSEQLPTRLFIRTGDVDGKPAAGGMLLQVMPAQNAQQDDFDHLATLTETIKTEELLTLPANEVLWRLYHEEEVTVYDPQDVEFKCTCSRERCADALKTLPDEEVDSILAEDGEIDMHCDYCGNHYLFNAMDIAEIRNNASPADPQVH

Assay [3] addresses oligomeric EF-Tu (^OligoEF-Tu), unfolded (UniProt P0CE47).

These are yes or no findings as the source states them, for the method shown. Some results given as binding are weak or reduced against the parent protein; the word gives no strength.

Regarding “elongation factor thermo-stable (EF-Ts) (from UniProt P0A6P1 1-283)”, the binding result was “binds” in assay [1] and “no binding (tested: 0.1 mM of each protein)” in assay [2].

Regarding “oligomeric EF-Tu (^OligoEF-Tu), unfolded (from UniProt P0CE47 1-394)”, the binding entry in assay [3] is given as “binds”.

With “trigger factor (TF) (from UniProt P0A850 1-432)”, the binding result in assay [2] is “no binding (tested: 0.1 mM of each protein)”.

Values taken from article PMC8614738.
